{
  "source": "PubChem BioAssay (NCI)",
  "note": "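Test compounds were applied to cells in 96-well plates for 48 hours at 5 doses. GI50: concentration for 50% inhibition of growth. TGI: concentration producing complete growth inhibition.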",
  "data": [
    {"test_system": "NCI-H322M lung", "assay": "inhibition of tumour cell growth, NCI panel, 48 h", "units": {"GI50": "µM", "TGI": "µM"}, "values": [
      {"smiles": "CC(=O)Nc1cccc(-n2cnc3cc(-c4ccc(O)cc4)ccc32)c1", "GI50": 10.5, "TGI": 33.4},
      {"smiles": "COc1ccccc1N1CCN(C2=NN=C(c3cccc(Cl)c3)c3ccccc3C2)CC1", "GI50": 0.631, "TGI": "> 100"},
      {"smiles": "O=C(N/N=C\\c1ccc(F)cc1)c1ccc2nc(-c3ccc(Br)cc3)[nH]c2c1", "GI50": 2.52, "TGI": 8.18}
    ]}
  ]
}
